The supplement of paper PMC8728848
The other results are listed elsewhere or left out.

Columns and labels:
Assay in all cases: glycan array binding signal (z-score within array); higher = stronger binding
Conditions in all cases: glycan notation: IUPAC condensed, linker removed; mutation: D325A
Fuc(a1-2)Gal = target: Fuc(a1-2)Gal
Procedure, shortened: (§1)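 Glycan array data came from 3228 arrays in the Consortium for Functional Glycomics database, and only arrays with an available protein sequence were kept. Glycan names were put into IUPAC-condensed notation, and columns mapping to the same glycan were averaged. The binding signal is a within-array Z-score, averaged across arrays of one protein sequence run at different concentrations or buffers and across linkers. A negative Z-score can be read as non-binding.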

Fuc(a1-2)Gal(b1-3)GalNAc = target: Fuc(a1-2)Gal(b1-3)GalNAc
Procedure, shortened: as §1

[1] = target: Fuc(a1-2)Gal(b1-3)GalNAc(b1-3)Gal
Procedure, shortened: as §1

[2] = target: Fuc(a1-2)Gal(b1-3)GalNAc(b1-3)Gal(a1-4)Gal(b1-4)Glc
Procedure, shortened: as §1

[3] = target: Fuc(a1-2)Gal(b1-3)GalNAc(b1-4)[Neu5Ac(a2-3)]Gal(b1-4)Glc
Procedure, shortened: as §1

Fuc(a1-2)Gal(b1-3)GlcNAc = target: Fuc(a1-2)Gal(b1-3)GlcNAc
Procedure, shortened: as §1

[4] = target: Fuc(a1-2)Gal(b1-3)GlcNAc(b1-3)Gal(b1-4)Glc
Procedure, shortened: as §1

[5] = target: Fuc(a1-2)Gal(b1-3)[Fuc(a1-4)]GlcNAc
Procedure, shortened: as §1

Fuc(a1-2)Gal(b1-4)Glc = target: Fuc(a1-2)Gal(b1-4)Glc
Procedure, shortened: as §1

Fuc(a1-2)Gal(b1-4)Glc6S = target: Fuc(a1-2)Gal(b1-4)Glc6S
Procedure, shortened: as §1

Fuc(a1-2)Gal(b1-4)GlcNAc = target: Fuc(a1-2)Gal(b1-4)GlcNAc
Procedure, shortened: as §1

[6] = target: Fuc(a1-2)Gal(b1-4)GlcNAc(b1-3)Gal(b1-4)GlcNAc
Procedure, shortened: as §1

[7] = target: Fuc(a1-2)Gal(b1-4)GlcNAc(b1-3)Gal(b1-4)GlcNAc(b1-3)Gal(b1-4)GlcNAc
Procedure, shortened: as §1

[8] = target: Fuc(a1-2)Gal(b1-4)GlcNAc6S
Procedure, shortened: as §1

[9] = target: Fuc(a1-2)Gal(b1-4)[Fuc(a1-3)]GlcNAc
Procedure, shortened: as §1

[10] = target: Fuc(a1-2)Gal(b1-4)[Fuc(a1-3)]GlcNAc(b1-3)Gal(b1-4)[Fuc(a1-3)]GlcNAc
Procedure, shortened: as §1

[11] = target: Fuc(a1-2)Gal(b1-4)[Fuc(a1-3)]GlcNAc(b1-3)Gal(b1-4)[Fuc(a1-3)]GlcNAc(b1-3)Gal(b1-4)[Fuc(a1-3)]GlcNAc
Procedure, shortened: as §1

Fuc(a1-2)Gal6S(b1-4)Glc = target: Fuc(a1-2)Gal6S(b1-4)Glc
Procedure, shortened: as §1

[12] = target: Fuc(a1-2)Gal6S(b1-4)Glc6S
Procedure, shortened: as §1

[13] = target: Fuc(a1-2)Gal6S(b1-4)GlcNAc
Procedure, shortened: as §1

Fuc(a1-2)[Gal(a1-3)]Gal = target: Fuc(a1-2)[Gal(a1-3)]Gal
Procedure, shortened: as §1

[14] = target: Fuc(a1-2)[Gal(a1-3)]Gal(b1-3)GlcNAc
Procedure, shortened: as §1

[15] = target: Fuc(a1-2)[Gal(a1-3)]Gal(b1-4)Glc
Procedure, shortened: as §1

[16] = target: Fuc(a1-2)[Gal(a1-3)]Gal(b1-4)GlcNAc
Procedure, shortened: as §1

[17] = target: Fuc(a1-2)[Gal(a1-3)]Gal(b1-4)[Fuc(a1-3)]GlcNAc
Procedure, shortened: as §1

[18] = target: Fuc(a1-2)[Gal(a1-4)]Gal(b1-4)GlcNAc
Procedure, shortened: as §1

[19] = target: Fuc(a1-2)[GalNAc(a1-3)]Gal
Procedure, shortened: as §1

[20] = target: Fuc(a1-2)[GalNAc(a1-3)]Gal(b1-3)GlcNAc
Procedure, shortened: as §1

[21] = target: Fuc(a1-2)[GalNAc(a1-3)]Gal(b1-4)Glc
Procedure, shortened: as §1

[22] = target: Fuc(a1-2)[GalNAc(a1-3)]Gal(b1-4)GlcNAc
Procedure, shortened: as §1

[23] = target: Fuc(a1-2)[GalNAc(a1-3)]Gal(b1-4)[Fuc(a1-3)]GlcNAc
Procedure, shortened: as §1

[24] = target: Fuc(a1-2)[GalNAc(a1-4)]Gal(b1-4)GlcNAc
Procedure, shortened: as §1

[25] = target: Fuc(a1-2)[GalNAc(b1-3)]Gal
Procedure, shortened: as §1

Fuc(a1-3)GlcNAc = target: Fuc(a1-3)GlcNAc
Procedure, shortened: as §1

[26] = target: Fuc(a1-3)[Gal(b1-4)]Glc6S
Procedure, shortened: as §1

[27] = target: Fuc(a1-3)[Gal(b1-4)]GlcNAc
Procedure, shortened: as §1

[28] = target: Fuc(a1-3)[Gal(b1-4)]GlcNAc(b1-2)Man(a1-3)[Fuc(a1-3)[Gal(b1-4)]GlcNAc(b1-2)Man(a1-6)]Man(b1-4)GlcNAc(b1-4)GlcNAc
Procedure, shortened: as §1

[29] = target: Fuc(a1-3)[Gal(b1-4)]GlcNAc(b1-2)Man(a1-6)[Gal(b1-4)GlcNAc(b1-2)Man(a1-3)]Man(b1-4)GlcNAc(b1-4)GlcNAc
Procedure, shortened: as §1

[30] = target: Fuc(a1-3)[Gal(b1-4)]GlcNAc(b1-3)Gal(b1-3)[Fuc(a1-4)]GlcNAc
Procedure, shortened: as §1

[31] = target: Fuc(a1-3)[Gal(b1-4)]GlcNAc(b1-4)Gal(b1-4)[Fuc(a1-3)]GlcNAc
Procedure, shortened: as §1

[32] = target: Fuc(a1-3)[Gal(b1-4)]GlcNAc(b1-4)Gal(b1-4)[Fuc(a1-3)]GlcNAc(b1-4)Gal(b1-4)[Fuc(a1-3)]GlcNAc
Procedure, shortened: as §1

[33] = target: Fuc(a1-3)[Gal(b1-4)]GlcNAc6S
Procedure, shortened: as §1

[34] = target: Fuc(a1-3)[Gal3S(b1-4)]Glc6S
Procedure, shortened: as §1

[35] = target: Fuc(a1-3)[Gal3S(b1-4)]GlcNAc
Procedure, shortened: as §1

[36] = target: Fuc(a1-3)[Gal3S(b1-4)]GlcNAc6S
Procedure, shortened: as §1

B1: Surfactant Protein D (Human); Neck + Carbohydrate Recognition Domain (NCRD) (Homo sapiens) (protein)
chain: MLLFLLSALVLLTQPLGYLEAEMKTYSHRTMPSACTLVMCSSVESGLPGRDRDGREGPRGEKGDPGLPGAAGQAGMPGQAGPVGPKGDNGSVGEPGPKGDTGPSGPPGPPGVPGPAGREGALGKQGNIGPQGKPGPKGEAGPKGEVGAPGMQGSAGARGLAGPKGERGVPGERGVPGNTGAAGSAGAMGPQGSPGARGPPGLKGDKGIPGDKGAKGESGLPDVASLRQQVEALQGQVQHLQAAFSQYKKVELFPNGQSVGEKIFKTAQFVKPFTEAQLLCTQAGGQLASPRSAAENAALQQLVVAKNEAAFLSMTDSKTEGKFTYPTGESLVYSNWAPGEPNDAGGSEDCVEIFTNGKWNDRACGEKRLVVCEF
glycan array binding signal (z-score) (Fuc(a1-2)Gal): -0.27 | glycan array binding signal (z-score) (Fuc(a1-2)Gal(b1-3)GalNAc): -0.268 | glycan array binding signal (z-score) [1]: -0.272 | glycan array binding signal (z-score) [2]: -0.271 | glycan array binding signal (z-score) [3]: -0.163 | glycan array binding signal (z-score) (Fuc(a1-2)Gal(b1-3)GlcNAc): -0.276 | glycan array binding signal (z-score) [4]: -0.268 | glycan array binding signal (z-score) [5]: -0.268 | glycan array binding signal (z-score) (Fuc(a1-2)Gal(b1-4)Glc): -0.269 | glycan array binding signal (z-score) (Fuc(a1-2)Gal(b1-4)Glc6S): -0.27 | glycan array binding signal (z-score) (Fuc(a1-2)Gal(b1-4)GlcNAc): -0.268 | glycan array binding signal (z-score) [6]: -0.226 | glycan array binding signal (z-score) [7]: -0.267 | glycan array binding signal (z-score) [8]: -0.172 | glycan array binding signal (z-score) [9]: -0.273 | glycan array binding signal (z-score) [10]: -0.243 | glycan array binding signal (z-score) [11]: 1.02 | glycan array binding signal (z-score) (Fuc(a1-2)Gal6S(b1-4)Glc): -0.271 | glycan array binding signal (z-score) [12]: -0.26 | glycan array binding signal (z-score) [13]: -0.266 | glycan array binding signal (z-score) (Fuc(a1-2)[Gal(a1-3)]Gal): -0.251 | glycan array binding signal (z-score) [14]: -0.251 | glycan array binding signal (z-score) [15]: -0.272 | glycan array binding signal (z-score) [16]: -0.27 | glycan array binding signal (z-score) [17]: -0.253 | glycan array binding signal (z-score) [18]: -0.273 | glycan array binding signal (z-score) [19]: -0.217 | glycan array binding signal (z-score) [20]: -0.272 | glycan array binding signal (z-score) [21]: -0.261 | glycan array binding signal (z-score) [22]: -0.247 | glycan array binding signal (z-score) [23]: -0.247 | glycan array binding signal (z-score) [24]: -0.264 | glycan array binding signal (z-score) [25]: -0.268 | glycan array binding signal (z-score) (Fuc(a1-3)GlcNAc): -0.252 | glycan array binding signal (z-score) [26]: -0.275 | glycan array binding signal (z-score) [27]: -0.237 | glycan array binding signal (z-score) [28]: 0.015 | glycan array binding signal (z-score) [29]: -0.272 | glycan array binding signal (z-score) [30]: -0.274 | glycan array binding signal (z-score) [31]: -0.225 | glycan array binding signal (z-score) [32]: -0.14 | glycan array binding signal (z-score) [33]: -0.272 | glycan array binding signal (z-score) [34]: -0.246 | glycan array binding signal (z-score) [35]: -0.269 | glycan array binding signal (z-score) [36]: -0.263
